According to PubChem BioAssay AID686979 (National Center for Advancing Translational Sciences (NCATS), 2013):
Values joined by “and” are separate entries in the source; they are usually repeats but may differ in a detail not shown here. Identical values can stand only once. The whole screen tested about 420,000 compounds, of which about 50,000 (12%) were called active. Inconclusive means that the source gave no clear call. Such entries were picked first, then a sample of the others. Calls come from the whole dose curve; as a rule, active = well fitted inhibition curve with a large enough effect; inconclusive = small, poorly fitted or top-dose-only effect; inactive = flat fitted curve, though single readings scatter. A potency beside an inconclusive call is a rough fit, not a confirmed value.

Test: qHTS for Inhibitors of human tyrosyl-DNA phosphodiesterase 1 (TDP1): qHTS in cells in presence of CPT; note: nearly all actives have a fitted effect of over 55% in size
Conditions: chicken DT40 Tdp1-/-;hTDP1 cells + 20 nM CPT, ATP luminescence, 48 h; activity change, negative = growth inhibition: at 46.2 µM (top of the series) unless noted
Method in brief: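 Chicken DT40 Tdp1-/- cells complemented with human TDP1, 400 cells/well, exposed to compounds plus 20 nM camptothecin for at least 48 h at 37 C; viability read as ATP content by CellTiter-Glo luminescence.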
% is set by controls: 0 for no effect and ±100 for the full control effect; potency is the fitted concentration of half-maximal effect; tags give direction and shape of the fitted curve.

Row | SMILES | Potency | activity change, negative = growth inhibition
1 | O=C(c1ccc2ccccc2c1)N1CCN(c2ccc([N+](=O)[O-])c(N3CCOCC3)c2)CC1 | inconclusive: 29.1 µM [inhibitor, single point] | 
2 | C/C(=N\NC(=O)c1nnn(-c2nonc2N)c1CSc1ccc(C)cc1)c1ccco1 | inactive | 
3 | O=C(Nc1ccc(S(=O)(=O)NC2CCCC2)cc1)c1cnccn1 | inconclusive: 18.4 µM [inhibitor, single point] | 
4 | COc1cc(/C=C2/C(=O)NN(c3cccc(C)c3)C2=O)ccc1OC(=O)c1ccco1 | inconclusive: 25.9 µM [inhibitor, single point] | 
5 | CCCN1/C(=C(/C#N)C2=NS(=O)(=O)c3ccccc32)N(C)c2ccccc21 | inactive | 
6 | Cc1ccccc1C(=O)N1CCC(C(=O)Nc2ccc(S(=O)(=O)N3CCCCC3)cc2)CC1 | active: 16.4 µM | 
7 | O=C(C1CCCO1)N1N=C(c2ccc(Br)cc2)CC1c1ccco1 (centres undefined) | inconclusive: 25.9 µM [inhibitor, single point] | 
8 | Cc1ccnc(SC2CC(=O)N(c3ccc(C(C)C)cc3)C2=O)n1 (centres undefined) | inconclusive: 29.1 µM [inhibitor, single point] | 
9 | Cc1cc(-c2ccc(C(C)C)c(S(=O)(=O)Nc3ccccn3)c2)on1 | inactive | 
10 | Cc1ccc(N2CCN(S(=O)(=O)N(C)C)CC2)c(C)c1 | inconclusive: 29.1 µM [inhibitor, single point] | 
11 | N=C1/C(=C/c2coc3ccccc3c2=O)C(=O)N=C2SC(c3ccco3)=NN12 | inconclusive: 3.66 µM [inhibitor, partial curve, poor fit] | 
12 | O=C1CCc2cc(OCCCCc3nnnn3C3CCCCC3)ccc2N1 | inconclusive: 33.5 µM [inhibitor, partial curve, poor fit] and inconclusive: 33.5 µM [inhibitor, single point] | inconclusive: -31.5% [inhibitor]
13 | O=C(NCC(c1ccco1)N1CCCCC1)c1cnc(Cl)c(Cl)c1 (centres undefined) | inconclusive: 16.4 µM [inhibitor, single point] | 
14 | COc1ccc(C(=O)NCC(c2ccc3c(c2)OCO3)N2CCN(c3ccccc3F)CC2)cc1 (centres undefined) | active: 7.31 µM | 
15 | CCNc1ncc2nc(C)c(=O)n(C[C@H]3CCCO3)c2n1 | inconclusive: 29.1 µM [inhibitor, single point] | 
16 | N#Cc1cnn(-c2ccccc2)c1NC(=O)CN1CCN(c2ccccc2)CC1 | inconclusive: 14.6 µM [inhibitor, partial curve, poor fit] | 
17 | Cc1onc(-c2c(Cl)cccc2Cl)c1C(=O)NC(=S)N1CCOCC1 | inconclusive: 29.1 µM [inhibitor, single point] | 
18 | C=CCN(C(=O)c1csnn1)C(C(=O)NC1CCCCC1)c1ccc(F)cc1 (centres undefined) | inactive | 
19 | Cn1c(N)c(C(=O)COC(=O)/C=C/c2cccc(Cl)c2)c(=O)n(C)c1=O | inactive | 
20 | O=C(NCCCN1CCc2ccccc2C1)C1CCN(S(=O)(=O)N2CCCC2)CC1 | inactive | 
21 | Cc1c(O)nc(SCC(=O)Nc2nccs2)n(-c2ccccc2F)c1=O | inactive | 
22 | COc1ccc(-c2nnc(SCC(=O)N/N=C/c3ccccc3C(=O)O)n2-c2ccccc2)cc1 | inactive | 

Row | SMILES | Potency | activity change, negative = growth inhibition
23 | COc1ccc(CN2CC[C@H]3C=CC[C@@H](C(=O)NCCc4ccccc4)[C@H]3C2=O)cc1OC | active: 14.1 µM | 
24 | C=CCn1c(SCc2ccc(F)cc2)nc2c1c(=O)[nH]c(=O)n2C | inconclusive: 16.4 µM [inhibitor, single point] | 
25 | CCN1CCN(c2c(Cl)cccc2NC(=O)c2ccc(Br)o2)CC1 | inconclusive: 29.1 µM [inhibitor, single point] | 
26 | O=C(O)c1ccc(NC(=O)c2cccc(C(=O)Nc3ccc(C(=O)O)cc3)n2)cc1 |  | inconclusive: -31.7% [inhibitor]
27 | COc1ccc(C(=O)Nc2cnn(Cc3c(F)cccc3Cl)c2)cc1OC | inconclusive: 20.6 µM [inhibitor, single point] | 
28 | CCCCCc1cc(=O)oc2c(C(CCN3CCCCC3)c3ccc4c(c3)OCO4)c(OC)cc(OC)c12 (centres undefined) | active: 23.1 µM | 
29 | CCN(CC(=O)N1CCC(C(N)=O)CC1)S(=O)(=O)c1ccc(Cl)cc1 | inactive | 
30 | O=c1c2ccccc2c(C=NCc2ccccn2)c(O)n1-c1ccccc1 | inactive | 
31 | O=C(c1cc2sccc2n1Cc1ccc(F)cc1)N1CCN(c2nc3ccccc3s2)CC1 | active: 13 µM | 
32 | COc1ccc(S(=O)(=O)Nc2ccc3c(c2)C(=O)N([C@H](C)CO)C[C@H](C)[C@@H](CN(C)C(=O)Nc2ccc(F)cc2)OCCCC[C@H](C)O3)cc1 | inconclusive: 29.1 µM [inhibitor, single point] | 
33 | Cc1ccc(/C=C2\SC(=S)N(c3c(C)n(C)n(-c4ccccc4)c3=O)C2=O)cc1 | inconclusive: 23.1 µM [inhibitor, single point] | 
34 | O=C(CCc1nc2ccccc2c(=O)[nH]1)NCc1cccc(Cl)c1 | active: 20.6 µM | 
35 | Cc1ccc(S(=O)(=O)N(C)C)cc1NC(=O)CSc1nc2ccccc2c(=O)n1CC1CCCO1 (centres undefined) | inconclusive: 25.9 µM [inhibitor, single point] | 
36 | CCCc1ccc(-c2cc(C(=O)Nc3ccc([N+](=O)[O-])cn3)c3ccccc3n2)cc1 | inactive | 
37 | O=C(CSCC(=O)N1CCOCC1)Nc1nc(-c2ccc3c(c2)OCO3)cs1 | inactive | 
38 | N#Cc1c(-c2ccccc2)nc(SCc2ccc(Cl)cc2)[nH]c1=O | inactive | 
39 | Cc1ccc(C)c(SCC(=O)Nc2nnc(-c3ccccc3)o2)c1 | inconclusive: 25.1 µM [inhibitor, single point] | 
40 | CCc1ccc(NC(=O)Cn2c(=O)n(CCCCC(=O)NCCc3ccc(Cl)cc3)c(=O)c3ccccc32)cc1 | inconclusive: 20.6 µM [inhibitor, partial curve] | 
41 | COc1cccc(CC2CC(=O)N(c3ccc4c(C)cc(=O)oc4c3)C2=O)c1 (centres undefined) | inactive | 
42 | C[C@@H]1CN([C@H](C)CO)S(=O)(=O)c2ccc(Br)cc2O[C@H]1CN(C)C(=O)Nc1ccccc1 | inconclusive: 23.1 µM [inhibitor, single point] | 
43 | COc1ccccc1N(CC(=O)Nc1ccc(Br)cc1F)S(=O)(=O)c1cccs1 | inconclusive: 29.1 µM [inhibitor, single point] | 
